Results taken from article PMC4336329 (PLoS ONE, 2015).
The campaign covered roughly 310,000 compounds. About 2,200 (0.71%) showed an effect of 50% or more. The effect is printed as a negative number. This is one part of the list.

Biological target: human ether-à-go-go-related gene (hERG) potassium channel (human, UniProt Q12809)
Assay: primary screen, population patch clamp on CHO cells stably expressing hERG

human ether-à-go-go-related gene (hERG) potassium channel, sequence (Q12809 whole entry, looked up): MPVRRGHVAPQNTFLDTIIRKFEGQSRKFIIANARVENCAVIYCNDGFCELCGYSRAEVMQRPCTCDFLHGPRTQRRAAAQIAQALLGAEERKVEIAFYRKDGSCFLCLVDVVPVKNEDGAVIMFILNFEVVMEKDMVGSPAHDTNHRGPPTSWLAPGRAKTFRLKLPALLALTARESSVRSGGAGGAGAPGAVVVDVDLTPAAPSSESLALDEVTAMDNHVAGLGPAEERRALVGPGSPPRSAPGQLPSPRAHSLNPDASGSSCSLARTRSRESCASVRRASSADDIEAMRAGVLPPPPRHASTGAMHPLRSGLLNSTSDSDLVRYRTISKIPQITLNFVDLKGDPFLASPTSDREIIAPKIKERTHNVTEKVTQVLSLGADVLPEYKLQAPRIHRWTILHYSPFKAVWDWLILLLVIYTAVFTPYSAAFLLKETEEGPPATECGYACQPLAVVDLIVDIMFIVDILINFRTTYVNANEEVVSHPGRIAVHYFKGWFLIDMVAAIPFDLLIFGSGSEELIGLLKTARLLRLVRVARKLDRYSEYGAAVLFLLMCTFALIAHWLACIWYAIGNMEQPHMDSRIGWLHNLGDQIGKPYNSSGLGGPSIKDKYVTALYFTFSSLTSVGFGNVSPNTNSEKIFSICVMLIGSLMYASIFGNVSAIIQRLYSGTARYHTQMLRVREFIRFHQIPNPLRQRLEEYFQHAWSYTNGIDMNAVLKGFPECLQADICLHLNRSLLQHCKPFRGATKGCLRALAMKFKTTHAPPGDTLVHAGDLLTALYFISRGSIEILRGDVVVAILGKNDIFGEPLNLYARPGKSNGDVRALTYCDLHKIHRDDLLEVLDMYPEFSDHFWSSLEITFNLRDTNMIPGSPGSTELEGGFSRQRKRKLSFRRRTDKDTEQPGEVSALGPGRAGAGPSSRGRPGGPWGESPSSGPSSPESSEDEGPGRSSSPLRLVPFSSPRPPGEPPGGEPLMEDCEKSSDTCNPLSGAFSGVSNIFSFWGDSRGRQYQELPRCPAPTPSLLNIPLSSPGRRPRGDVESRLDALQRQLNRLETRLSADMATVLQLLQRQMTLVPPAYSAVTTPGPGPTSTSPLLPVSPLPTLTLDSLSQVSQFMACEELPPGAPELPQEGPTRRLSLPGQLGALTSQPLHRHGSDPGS

Row | Compound | hERG current change (%, negative = inhibition) at 1uM [%]
1 | Cc1ccccc1S(=O)(=O)NCC1CCCO1 (stereo not drawn) | 13.5
2 | C=CCNC(=O)/C(C#N)=C/c1ccccc1Cl | 17
3 | c1ccc(-n2nnnc2Oc2ccc(-c3nnco3)cc2)cc1 | -2.51
4 | CCOc1ccc(Cn2nnc(C(=O)Nc3cc(C)cc(C)c3)c2N)cc1 | 9.04
5 | Cc1ccc2[nH]c(C(=O)NCCN3CCCC3)cc2c1.Cl | 11.2
6 | O=C(NCc1ccco1)c1ccc(NS(=O)(=O)c2cccc(F)c2)cc1 | 14.4
7 | CN(CCNC(=O)C1CC(=O)N(C2CCCC2)C1)Cc1ccccc1 (stereo not drawn) | 2.28
8 | COc1ccc(C(O)c2nc3ccccc3s2)cc1 (stereo not drawn) | 13.7
9 | Cc1ccc([C@@H]2[C@@H]3C(=O)N(C)C(=O)[C@@H]3[C@@H]3C(=O)Nc4ccccc4C(=O)N23)cc1 | 10.1
10 | Cc1ccc(CNC(=O)c2ccc(N3CCC4(CC3)CC(c3cccc(Br)c3)=NO4)c(NC(=O)c3cccc(C)c3)c2)cc1 | 8.49
11 | Cc1sc2nc(C(C)C)nc(SCC(=O)N3c4ccccc4CC3C)c2c1C (stereo not drawn) | 15.4
12 | Nc1c(N(Cc2ccccc2)C(=O)CCc2ccccc2)c(=O)[nH]c(=O)n1Cc1ccccc1 | 4.72
13 | COc1cccc(-c2cc(C(F)(F)F)nc(NCc3ccco3)n2)c1 | 14.3
14 | CCOC(=O)C1=C(N)OC2=C(C(=O)CC(C)(C)C2)C1c1ccc(CC)s1 (stereo not drawn) | 11.2
15 | O=c1[nH]c(SCCN2CCOCC2)nc(O)c1-c1ccccc1 | 14
16 | COC(=O)C1=C(O)/C(=C/c2cccc(OC)c2O)N=C1C | 24.1
17 | O=C(CNc1ccccc1C(=O)O)c1ccccc1 | 18.2
18 | Cc1cc(C(F)(F)Cl)n2ncc(-c3ccccn3)c2n1 | 13.1
19 | O=C(CO)C(O)C(O)C(O)CO (stereo not drawn) | 12.7
20 | CC(=O)Nc1ccc(NC(=O)C2CCN(c3c(Cc4ccccc4)c(C)nc4ncnn34)CC2)cc1 | 7.31
21 | CC1CCCC(NC(=O)CN(C)S(=O)(=O)c2cccc3cccnc23)C1C (stereo not drawn) | 0.895
22 | CCOc1ccc2oc(C(=O)N(CC)CC(=O)Nc3ccc(NC(C)=O)cc3)c(C)c2c1 | -4.7

Row | Compound | hERG current change (%, negative = inhibition) at 1uM [%]
23 | O=C(c1cc(F)c(F)cc1Cl)N1CCN(c2ccc([N+](=O)[O-])c3ncccc23)CC1 | -53.6
24 | N#C/C(=C\c1ccc(O)c(O)c1)C(=O)NCc1ccccc1 | -5.15
25 | Cc1ccc(CSc2nn3c(=O)c(C)nnc3s2)cc1 | -10.7
26 | Cc1ccc(O)c(-c2cc3ccccc3[nH]2)c1 | 3.37
27 | COc1cc(NC(=O)C2=CC(c3cccs3)=NS(=O)(=O)N2C)cc(OC)c1OC | 1.67
28 | CCOC(=O)c1c(-c2ccc(C)cc2)csc1NC1=NS(=O)(=O)c2ccccc21 | 7.83
29 | CCN(CC)CCCN=Cc1c(O)n(-c2ccc(C)cc2)c(=O)c2ccccc12 | 15.2
30 | O=C(NCC1CCCO1)c1cnn2c(C(F)F)cc(C3CC3)nc12 (stereo not drawn) | 8.03
31 | COc1ccc(OCC(=O)O/N=C(\N)Cc2ccc(Cl)cc2)cc1 | 8.82
32 | O=[N+]([O-])c1ccc(COc2cccc(CNc3ccc(Br)cc3)c2)cc1 | -2.42
33 | Cc1ccc(N(C(=O)Cn2nnc(-c3ccc(F)cc3)n2)C(CC(C)C)C(=O)NCC2CCCO2)cc1 (stereo not drawn) | 5.31
34 | COc1cccc2cc(-c3cn4ccc(C)cc4n3)c(=O)oc12 | 12.1
35 | COc1cccc(-c2nnc(NC(=O)C3CCCCC3)o2)c1 | 12.8
36 | c1cnc2ccc(C(c3nnnn3C3CCCCC3)N3CCCCC3)cc2c1 (stereo not drawn) | 1.89
37 | CC(C)N(C)CCOC(=O)c1ccccc1Cl.Cl | 1.85
38 | COC(=O)c1cc(N=Cc2c(O)c3ccccc3oc2=O)cc(C(=O)OC)c1 | 19.8
39 | C=CCN(CC=C)C(=O)CN1C(=O)NC(C)(c2ccc3cc(OC)ccc3c2)C1=O (stereo not drawn) | 11.5
40 | O=C(NCCc1cn2ccccc2n1)c1ccccc1F | 2.41
41 | CCCC(=O)N1CCN(c2nc3ccc(CC)cc3s2)CC1 | 4.32
42 | Cc1nnc(NC(=O)C2CCN(S(=O)(=O)c3cc([N+](=O)[O-])ccc3Cl)CC2)o1 | -2.02
43 | COCCCC1CCN(C(=O)C2CCC(=O)N(CC3CCCCC3)C2)CC1 (stereo not drawn) | 2.85
44 | CC1CCN(c2c(NCc3ccc(C(=O)NCc4cccnc4)cc3)c(=O)c2=O)CC1 | 13.4

Row | Compound | hERG current change (%, negative = inhibition) at 1uM [%]
45 | COc1ccc(C2Nc3ccc4ccccc4c3-c3c2c(=O)oc2ccccc32)cc1 (stereo not drawn) | 7.65
46 | COc1ccc(C(=O)NC(=S)Nc2cccc3ncccc23)cc1[N+](=O)[O-] | 11
47 | N#C/C(=C\c1ccc(F)c(Br)c1)C(=O)NC1CC1 | -6.48
48 | CCCc1nnc(SCC(=O)N2CCOCC2)n1Cc1ccco1 | 13.2
49 | CC1(C)CC(NC(=O)c2cc(S(=O)(=O)N3CCOCC3)c(Cl)cc2Cl)CC(C)(C)N1 | 10
50 | Cc1ccc(CCNC(=O)c2coc3nc4ccccc4nc23)cc1 | 4.28
51 | CC(NC(=O)CCC1COc2ccccc2O1)c1ccccc1 (stereo not drawn) | 8.36
52 | N#Cc1ccc(Cn2c(=O)oc3ccccc32)cc1 | -1.74
53 | CC1C/C(=N/N2C(=O)CSC2=S)CC(C)(C)C1 (stereo not drawn) | 11.1
54 | NC(=O)c1cc(S(=O)(=O)N2CCc3ccccc3C2)cs1 | 14.5
55 | CCOCCCn1c(SCC(=O)Nc2ccccc2)nc2ccccc2c1=O | -1.48
56 | CCCC(CCC)=NNc1ccc(S(=O)(=O)Nc2ccccc2OC)cc1[N+](=O)[O-] | 9.54
57 | Cc1cc(=O)oc2cc(OCC(=O)N/N=C/c3cc([N+](=O)[O-])ccc3O)ccc12 | 10.5
58 | COc1ccc(C(=O)N2CCC3(CC2)NCCc2[nH]cnc23)cc1OC | 18.1
59 | CCCCOc1ccc(C(=O)OC(C)CN(C)C)cc1.Cl (stereo not drawn) | 3.71
60 | CCOC(=O)C(CC)/C(C)=N\NC(=O)c1ccccc1O (stereo not drawn) | 8.39
61 | Cc1cc(OCCn2cnc3ccccc3c2=O)ccc1[N+](=O)[O-] | 0.46
62 | O=C(NCc1cccnc1)C(=O)NCC(c1ccco1)N1CCN(c2ccccc2)CC1 (stereo not drawn) | -6.85
63 | O=C(Nc1ccccc1)[C@@H]1[C@@H]2C(=O)N(c3ccc(F)cc3)C(=O)[C@@H]2[C@H]2C=CC=NN21 | 16.4
64 | CSc1nncn1/N=C/c1ccc2c(c1)OCO2 | 17.1
65 | COc1ccc(N2C(=O)CSC23CCCCC3)cc1 | 14.4
66 | Cc1ccc(/C=N/NC(=O)c2ccccc2OCc2ccc(F)cc2)o1 | -2.78

Row | Compound | hERG current change (%, negative = inhibition) at 1uM [%]
67 | C=CCn1c(-c2cc(-c3ccc(C)cc3)nc3ccccc23)n[nH]c1=S | 13.1
68 | Cc1nc2ccc(Br)cc2c(=O)n1-c1ccc([N+](=O)[O-])c(C(F)(F)F)c1 | 8.09
69 | O=C(NC1CCCCC1)C1CC(O)CN1C(=O)OCc1ccccc1 (stereo not drawn) | 1.04
70 | O=C(CN(Cc1ccccc1)C(=O)CCC(=O)Nc1ccccn1)NCc1ccco1 | 3.01
71 | COc1ccc(C2/C=C\CN(S(=O)(=O)c3ccc(C)cc3)CC(=O)N2Cc2ccc(F)cc2)cc1 (stereo not drawn) | 7.16
72 | Cc1ccc(C)c(S(=O)(=O)N2CCCC2CNC(=O)C(=O)NC2CCCCCC2)c1 (stereo not drawn) | 8.42
73 | Cc1ccc(-c2noc(CSc3nc(N)cc(N)n3)n2)cc1 | -3.51
74 | CCCCOC(=O)n1c(SCC(=O)N(CC)CC)nc2ccccc21 | -4.13
75 | Cc1oc(-c2ccc(Cl)cc2)nc1CS(=O)CC(=O)NCCCN1CCN(Cc2ccccc2)CC1 (stereo not drawn) | -12.8
76 | Cc1nc(C)n(C(=O)N(c2ccccc2)c2ccccc2)n1 | 4.25
77 | CC(=O)C(Sc1ncnc2sc3c(c12)CCCC3)C(C)=O | 24
78 | CSc1ccc(/C=N/NC(=O)C[n+]2ccccc2)cc1.[Cl-] | 8.52
79 | CC1CC(C)CN(CC(=O)N2c3ccccc3CCc3ccccc32)C1.O=C(O)C(=O)O (stereo not drawn) | 11.6
80 | CC(=O)Nc1ccc(NC(=O)C(C)OC(=O)CCc2c[nH]c3ccccc23)cc1 (stereo not drawn) | 5.26
81 | Cc1ccc(C(=O)COC(=O)COc2ccc(C)c(C)c2)cc1 | 8.02
82 | COc1ccc(-c2onc(C)c2-c2ccc(C(=O)OC(C)C)o2)c(O)c1 | 1.81
83 | CC1CCN(CC(=O)NCCc2ccc(F)cc2)CC1.O=C(O)C(=O)O | 10.2
84 | CC(C)c1ccc(N(C(=O)c2snc(C(N)=O)c2N)C(C(=O)NC2CCCC2)c2ccncc2)cc1 (stereo not drawn) | 12.5
85 | CC(C)Oc1nnnn1-c1ccccc1 | 6.64
86 | NC(=O)c1nn(-c2ccccc2)c(=O)cc1O | -5.52
87 | Cc1ccc(-c2nn(-c3ccccn3)c(=O)c3ccccc23)cc1 | 6.16
